In the supplement of paper PMC4166925:
± gives the standard deviation of the averaged measurements. Whole data set: some 33,000 sequences, median “E-score (dimensionless, -0.5 to 0.5)” near -0.049, cut for the highest 2% near 0.37. Some of the results follow.

What follows are sequences tested on T1, PmTbr T-box DNA-binding domain (GST fusion) (assay: PBM E-score of 8-mer (E-score (dimensionless, -0.5 to 0.5)); Tbr is Tbrain of the sea star Patiria miniata (Pm) or the sea urchin Strongylocentrotus purpuratus (Sp); higher = stronger binding preference; most listed sequences are background and not binding sites). Details: the construct has about 5 more residues each side.
T1 sequence: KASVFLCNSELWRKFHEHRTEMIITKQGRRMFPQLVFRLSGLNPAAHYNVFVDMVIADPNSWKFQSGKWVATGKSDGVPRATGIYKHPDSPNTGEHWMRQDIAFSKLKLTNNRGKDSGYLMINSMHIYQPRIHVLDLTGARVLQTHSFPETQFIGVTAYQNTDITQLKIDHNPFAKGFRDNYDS
In short: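 Each ungapped 8-mer received an enrichment E-score from the Universal PBM Analysis Suite, averaged over duplicate arrays. The proteins were Tbr T-box DNA-binding domains, covering the whole T-box plus about five flanking residues, fused to GST and expressed in BL21 E. coli at 20 °C before glutathione affinity purification. Universal Agilent oligonucleotide arrays were made double-stranded by primer extension and incubated with 200 nM protein in PBS (pH 7.5). The arrays were then scanned and quantified, and every 8-mer was scored from probe intensities.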

Sequence | PBM E-score of 8-mer
ACTGGACG | 0.0928 ± 0.045
CAGCTGGA | -0.221 ± 0.029
GGCGAATA | 0.0105 ± 0.026
GCACTAAA | 0.14 ± 0.028
GGAGTCAA | -0.0847 ± 0.032
AGATTGTC | 0.216 ± 0.063
CTCGTTAC | -0.136 ± 0.0026
TATGTCGA | 0.0253 ± 0.041
AAATACGT | 0.0188 ± 0.0064
CTCTGCGA | -0.0978 ± 0.06
AACGAACG | -0.0261 ± 0.026
CTTGTCTA | -0.142 ± 0.021
AAGGCTCC | -0.227 ± 0.013
CCGACCCC | -0.247 ± 0.027
AGATCCCA | -0.104 ± 0.0058
AGACGCTC | -0.144 ± 0.0057
CTATCACC | 0.431 ± 0.0063
CTTCTTGA | -0.0622 ± 0.074
CTTTACAA | -0.00427 ± 0.0057
CTCAAGGA | -0.141 ± 0.013
AAGCGCTG | 0.0223 ± 0.0011
AAGACCTC | -0.0546 ± 0.021

Sequence | PBM E-score of 8-mer
TCAGCCGA | -0.213 ± 0.01
ACCCATAG | -0.0519 ± 0.053
CCTCGCTA | 0.151 ± 0.047
CTGTTACA | 0.197 ± 0.0076
GCAGGACA | -0.153 ± 0.09
ACCCGTTA | 0.168 ± 0.013
AAATAAGA | -0.141 ± 0.044
ATATAAGA | -0.208 ± 0.029
CCGCTCGC | 0.0846 ± 0.019
CAATGCTA | -0.156 ± 0.039
CGTTTGCA | 0.0816 ± 0.0086
CTGTCGAA | 0.125 ± 0.0096
CAAGGAAC | -0.181 ± 0.032
AGGCCAAA | -0.26 ± 0.0079
AAGATTCG | -0.0299 ± 0.017
GCTTAAGA | -0.259 ± 0.0077
AAAGCAAG | -0.0735 ± 0.0072
AGTGATAA | 0.317 ± 0.052
AGCTAACG | 0.157 ± 0.031
TCAGGCAA | -0.187 ± 0.025
ATGCAGAC | -0.201 ± 0.073
CCCATGAA | -0.0505 ± 0.00062

Sequence | PBM E-score of 8-mer
CGGAGCTC | -0.248 ± 0.037
CTTCCAAA | -0.193 ± 0.023
ACTTAGAT | 0.109 ± 0.0052
GGACATAC | -0.0892 ± 0.092
AACAAATG | -0.0252 ± 0.075
CCTTTTAC | 0.0345 ± 0.095
AGTAAAAC | -0.0783 ± 0.055
ACTGCCGC | -0.092 ± 0.042
CGTGCATC | -0.188 ± 0.022
CCCGCGAA | 0.3531 ± 0.0014
ATCGTAAG | -0.227 ± 0.013
GAAGATCC | -0.101 ± 0.034
AACGTTTG | 0.0016 ± 0.0022
CAGCTAGA | -0.0602 ± 0.025
AGATAACA | 0.224 ± 0.069
GTGCTCTA | -0.209 ± 0.032
CATAGAAC | -0.0439 ± 0.09
CCGATACA | 0.031 ± 0.021
CCCTCTGC | 0.0209 ± 0.072
ATGCTGCG | -0.0411 ± 0.0053
AATGGCGG | -0.148 ± 0.0088
CTCAAACC | -0.2904 ± 0.0017

Sequence | PBM E-score of 8-mer
AATCGGTC | -0.191 ± 0.069
CCATCTTA | -0.0257 ± 0.081
CACAGTAG | 0.2113 ± 0.0006
CGAGGGAG | -0.0838 ± 0.048
ACTAGTTG | 0.0914 ± 0.07
GTACAGAC | -0.107 ± 0.013
AGTCTGCA | -0.133 ± 0.036
AAGTCTGG | -0.278 ± 0.022
ATCATATG | -0.0732 ± 0.1
CAGCAGCA | -0.0444 ± 0.023
GATAACGA | 0.0451 ± 0.049
GACTCGCA | 0.229 ± 0.025
ATGTAGAG | -0.23 ± 0.043
ATCCATCG | -0.0819 ± 0.025
CACAATGA | 0.0344 ± 0.009
CAAAATTG | -0.0773 ± 0.059
CCCTCTAG | -0.0329 ± 0.061
AGTCGGGA | 0.0954 ± 0.021
AACCCGGC | -0.239 ± 0.059
GACTGCGC | -0.107 ± 0.044
TAGGGGCA | -0.152 ± 0.014
CTTTAAAC | -0.149 ± 0.014

Sequence | PBM E-score of 8-mer
CGGATGAA | -0.299 ± 0.0067
GCTCTTCA | 0.0301 ± 0.094
CATACTCA | -0.0462 ± 0.021
ATAAAACA | -0.0497 ± 0.037
ACCTCGTA | 0.176 ± 0.033
CGCCACAC | 0.362 ± 0.014
CCATAGCA | -0.0644 ± 0.11
AACTTCGA | 0.0686 ± 0.023
CTCAGATA | -0.206 ± 0.0028
CTTATTGC | -0.0461 ± 0.023
AAGTATGT | -0.0434 ± 0.021
CAGGCGCA | -0.00442 ± 0.067
AGAACGTG | 0.221 ± 0.037
AATAACAT | -0.149 ± 0.06
CGGTGGGC | -0.131 ± 0.04
CAACCTTG | -0.0709 ± 0.09
AGCAGTGC | 0.0683 ± 0.13
TTGCGCAA | 0.108 ± 0.0064
TAGGCGGA | -0.154 ± 0.036
TAGGGTCA | -0.0997 ± 0.066
ACATCGAC | 0.223 ± 0.032
